B1: TEV protease; numbered along this chain (parent)
chain: MGESLFKGPRDYNPISSSICHLTNESDGHTTSLYGIGFGPFIITNKHLFRRNNGTLVVQSLHGVFKVKDTTTLQQHLVDGRDMIIIRMPKDFPPFPQKLKFREPQREERICLVTTNFQTKSMSSMVSDTSCTFPSGDGIFWKHWIQTKDGQCGSPLVSTRDGFIVGIHSASNFTNTNNYFTSVPKNFMELLTNQEAQQWVSGWRLNADSVLWGGHKVFMVKPEEPFQPVKEATQL

The variants in this assay derive from B1. Nature of the assay: raw area under fraction-flipped curve 0-4 h after induction (AUC4h, not background-subtracted), DNA-recorder readout of cleavage of the substrate (dimensionless); higher = more cleavage of the substrate by the protease variant. The note with it: temperature: 34 °C; time window: 0-4 h after rhamnose induction. As for the experimental part:
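In vivo DNA recorder in E. coli TOP10(DE3) ΔrhaA at 34 °C. Each TEVp single-site mutant (parent TEVp 0) is paired with a single-site variant of the 7-mer TEVs (canonical ENLYFQ|S). The substrate sits between flexible linkers in a Bxb1-sfGFP-TEVs-SsrA fusion, so cleavage stabilises Bxb1 and speeds flipping of a recombination array, read by NGS. The value is the raw area under the fraction-flipped curve over 0-4 h after rhamnose induction (AUC4h), with ≥20 reads per time point. It is not background-subtracted; inactive controls average about 0.047.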

The list shows a part of the results. Sequences were assembled here from the parent chain. Values near 0.05 are background.
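Note: Bxb1 expression induced with 0.2% (w/v) L-rhamnose at OD600 near 0.5, cultures sampled hourly, flipped fraction per protease–substrate barcode pair counted by paired-end Illumina sequencing.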

As for MGESLFKGPRDPNPISSSICHLTNESDGHTTSLYGIGFGPFIITNKHLFRRNNGTLVVQSLHGVFKVKDTTTLQQHLVDGRDMIIIRMPKDFPPFPQKLKFREPQREERICLVTTNFQTKSMSSMVSDTSCTFPSGDGIFWKHWIQTKDGQCGSPLVSTRDGFIVGIHSASNFTNTNNYFTSVPKNFMELLTNQEAQQWVSGWRLNADSVLWGGHKVFMVKPEEPFQPVKEATQL [Y12P], the “area with substrate ENAYFQS” value stood at 0.0639, the “area with substrate ENCYFQS” value was 0.0631, the “area with substrate ENDYFQS” value was 0.0717 and the “area with substrate ENEYFQS” value was 0.0727. In addition, the “area with substrate ENFYFQS” value was 0.0542, the “area with substrate ENGYFQS” value was 0.0649, the “area with substrate ENKYFQS” value was found to be 0.0658 and the “area with substrate ENMYFQS” value is 0.0796. In addition, the “area with substrate ENNYFQS” value was found to be 0.0662, the “area with substrate ENPYFQS” value amounted to 0.0639, the “area with substrate ENQYFQS” value came to 0.0575 and the “area with substrate ENRYFQS” value is 0.0495. Besides, the “area with substrate ENSYFQS” value came to 0.129, the “area with substrate ENTYFQS” value was determined as 0.0617, the “area with substrate ENVYFQS” value came to 0.0955 and the “area with substrate ENWYFQS” value was determined as 0.0403. Also, the “area with substrate ENYYFQS” value was determined as 0.0447.
MGESLFKGPRDYNPISSSIEHLTNESDGHTTSLYGIGFGPFIITNKHLFRRNNGTLVVQSLHGVFKVKDTTTLQQHLVDGRDMIIIRMPKDFPPFPQKLKFREPQREERICLVTTNFQTKSMSSMVSDTSCTFPSGDGIFWKHWIQTKDGQCGSPLVSTRDGFIVGIHSASNFTNTNNYFTSVPKNFMELLTNQEAQQWVSGWRLNADSVLWGGHKVFMVKPEEPFQPVKEATQL [C20E]: the “area with substrate ENAYFQS” value amounted to 0.0531, the “area with substrate ENCYFQS” value is 0.0458, the “area with substrate ENDYFQS” value was determined as 0.045 and the “area with substrate ENEYFQS” value worked out at 0.055. Also, the “area with substrate ENFYFQS” value came to 0.039, the “area with substrate ENIYFQS” value turned out to be 0.0428, the “area with substrate ENKYFQS” value was 0.0237 and the “area with substrate ENNYFQS” value amounted to 0.0422. In addition, the “area with substrate ENQYFQS” value is 0.042, the “area with substrate ENRYFQS” value was 0.0622, the “area with substrate ENSYFQS” value stood at 0.0483 and the “area with substrate ENTYFQS” value was determined as 0.0305. Also, the “area with substrate ENWYFQS” value came out at 0.0052.
As for MGESLFKGPRDYNPISSSIAHLTNESDGHTTSLYGIGFGPFIITNKHLFRRNNGTLVVQSLHGVFKVKDTTTLQQHLVDGRDMIIIRMPKDFPPFPQKLKFREPQREERICLVTTNFQTKSMSSMVSDTSCTFPSGDGIFWKHWIQTKDGQCGSPLVSTRDGFIVGIHSASNFTNTNNYFTSVPKNFMELLTNQEAQQWVSGWRLNADSVLWGGHKVFMVKPEEPFQPVKEATQL [C20A], the “area with substrate ENAYFQS” value turned out to be 0.046, the “area with substrate ENCYFQS” value amounted to 0.0697, the “area with substrate ENDYFQS” value was 0.0573 and the “area with substrate ENEYFQS” value was found to be 0.0729. The “area with substrate ENFYFQS” value turned out to be 0.0637, the “area with substrate ENGYFQS” value was found to be 0.0682, the “area with substrate ENKYFQS” value came to 0.0381 and the “area with substrate ENMYFQS” value worked out at 0.0706. Further, the “area with substrate ENPYFQS” value stood at 0.0555, the “area with substrate ENQYFQS” value was found to be 0.0602, the “area with substrate ENRYFQS” value stood at 0.0564 and the “area with substrate ENSYFQS” value was 0.0738. The “area with substrate ENVYFQS” value is 0.0707, the “area with substrate ENWYFQS” value stood at 0.032 and the “area with substrate ENYYFQS” value turned out to be 0.0672.
MGESLFKGARDYNPISSSICHLTNESDGHTTSLYGIGFGPFIITNKHLFRRNNGTLVVQSLHGVFKVKDTTTLQQHLVDGRDMIIIRMPKDFPPFPQKLKFREPQREERICLVTTNFQTKSMSSMVSDTSCTFPSGDGIFWKHWIQTKDGQCGSPLVSTRDGFIVGIHSASNFTNTNNYFTSVPKNFMELLTNQEAQQWVSGWRLNADSVLWGGHKVFMVKPEEPFQPVKEATQL [P9A]: the “area with substrate ENAYFQS” value is 0.0573, the “area with substrate ENCYFQS” value worked out at 0.0217, the “area with substrate ENDYFQS” value came to 0.0478 and the “area with substrate ENEYFQS” value stood at 0.0665. The “area with substrate ENGYFQS” value worked out at 0.0493, the “area with substrate ENHYFQS” value came to 0.0518, the “area with substrate ENKYFQS” value is 0.0649 and the “area with substrate ENMYFQS” value worked out at 0.0864. The “area with substrate ENNYFQS” value was found to be 0.0609, the “area with substrate ENQYFQS” value is 0.0665, the “area with substrate ENRYFQS” value was determined as 0.0486 and the “area with substrate ENTYFQS” value turned out to be 0.0637. The “area with substrate ENVYFQS” value was 0.0744 and the “area with substrate ENYYFQS” value was 0.0568.
For MQESLFKGPRDYNPISSSICHLTNESDGHTTSLYGIGFGPFIITNKHLFRRNNGTLVVQSLHGVFKVKDTTTLQQHLVDGRDMIIIRMPKDFPPFPQKLKFREPQREERICLVTTNFQTKSMSSMVSDTSCTFPSGDGIFWKHWIQTKDGQCGSPLVSTRDGFIVGIHSASNFTNTNNYFTSVPKNFMELLTNQEAQQWVSGWRLNADSVLWGGHKVFMVKPEEPFQPVKEATQL [G2Q], the “area with substrate ENAYFQS” value came to 0.0551, the “area with substrate ENCYFQS” value was 0.0721, the “area with substrate ENDYFQS” value was found to be 0.0532 and the “area with substrate ENEYFQS” value turned out to be 0.0834. The “area with substrate ENFYFQS” value was found to be 0.06, the “area with substrate ENGYFQS” value was determined as 0.073, the “area with substrate ENHYFQS” value was determined as 0.033 and the “area with substrate ENIYFQS” value stood at 0.118. For the same variant, the “area with substrate ENMYFQS” value came out at 0.0905, the “area with substrate ENPYFQS” value amounted to 0.0666, the “area with substrate ENQYFQS” value was 0.055 and the “area with substrate ENRYFQS” value came to 0.0712. The “area with substrate ENSYFQS” value turned out to be 0.0649, the “area with substrate ENTYFQS” value came to 0.0567 and the “area with substrate ENVYFQS” value stood at 0.0746.

These data come from the supplement of paper PMC12217912.
